# From the supplement of paper PMC8728848
# Some of the results follow.
# B1: CGL (Crenomytilus grayanus), H2FH31 (protein)
# chain: MTTFLIKHKASGKFLHPYGGSSNPANNTKLVLHSDIHERMYFQFDVVDERWGYIKHVASGKIVHPYGGQANPPNETNMVLHQDRHDRALFAMDFFNDNIMHKGGKYIHPKGGSPNPPNNTETVIHGDKHAAMEFIFVSPKNKDKRVLVYA
# How the values were obtained:
# Assay in all cases: glycan array binding signal (z-score within array); higher = stronger binding
# Conditions in all cases: glycan notation: IUPAC condensed, linker removed
# GalNAc(b1-4)GlcNAc = molecular target: GalNAc(b1-4)GlcNAc
# Outline: (§1)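 Negative Z-scores can be read as non-binding. The Z-score is calculated within each array and then averaged across arrays of one protein sequence at different concentrations or buffers and across linkers. Arrays, 3228 in all, were curated from the Consortium for Functional Glycomics database and kept only where the protein sequence was available.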
# [1] = molecular target: GalNAc(b1-4)GlcNAc(b1-2)Man
# Outline: as §1
# [2] = molecular target: GalNAc(b1-4)GlcNAc(b1-2)Man(a1-3)[GalNAc(b1-4)GlcNAc(b1-2)Man(a1-6)]Man(b1-4)GlcNAc(b1-4)GlcNAc
# Outline: as §1
# [3] = molecular target: GalNAc(b1-4)GlcNAc(b1-3)GalNAc(b1-4)GlcNAc
# Outline: as §1
# GalNAc(b1-4)GlcNAc6S = molecular target: GalNAc(b1-4)GlcNAc6S
# Outline: as §1
# GalNAc(b1-6)GalNAc = molecular target: GalNAc(b1-6)GalNAc
# Outline: as §1
# GalNAc3S(b1-4)GlcNAc = molecular target: GalNAc3S(b1-4)GlcNAc
# Outline: as §1
# GalNAc3S(b1-4)GlcNAc3S = molecular target: GalNAc3S(b1-4)GlcNAc3S
# Outline: as §1
# [4] = molecular target: GalNAc3S(b1-4)[Fuc(a1-3)]GlcNAc
# Outline: as §1
# GalNAc4S6S(b1-4)GlcNAc = molecular target: GalNAc4S6S(b1-4)GlcNAc
# Outline: as §1
# GalNAc6S(b1-4)GlcNAc = molecular target: GalNAc6S(b1-4)GlcNAc
# Outline: as §1
# Glc(a1-4)Glc = molecular target: Glc(a1-4)Glc
# Outline: as §1
# [5] = molecular target: Glc(a1-4)Glc(a1-4)Glc(a1-4)Glc
# Outline: as §1
# Glc(a1-6)Glc(a1-6)Glc = molecular target: Glc(a1-6)Glc(a1-6)Glc
# Outline: as §1
# [6] = molecular target: Glc(a1-6)Glc(a1-6)Glc(a1-6)Glc
# Outline: as §1
# Glc(b1-4)Glc = molecular target: Glc(b1-4)Glc
# Outline: as §1
# Glc(b1-6)Glc = molecular target: Glc(b1-6)Glc
# Outline: as §1
# GlcA(b1-3)Gal = molecular target: GlcA(b1-3)Gal
# Outline: as §1
# GlcA(b1-3)GlcNAc = molecular target: GlcA(b1-3)GlcNAc
# Outline: as §1
# GlcA(b1-6)Gal = molecular target: GlcA(b1-6)Gal
# Outline: as §1
# [7] = molecular target: GlcA3S(b1-3)Gal(b1-4)GlcNAc(b1-2)Man
# Outline: as §1
# [8] = molecular target: GlcA3S(b1-3)Gal(b1-4)GlcNAc(b1-3)Gal(b1-4)Glc
# Outline: as §1
# [9] = molecular target: GlcNAc(a1-3)Gal(b1-4)GlcNAc
# Outline: as §1
# [10] = molecular target: GlcNAc(a1-4)Gal(b1-3)GlcNAc
# Outline: as §1
# [11] = molecular target: GlcNAc(a1-4)Gal(b1-4)GalNAc
# Outline: as §1
# [12] = molecular target: GlcNAc(a1-4)Gal(b1-4)GlcNAc
# Outline: as §1
# [13] = molecular target: GlcNAc(a1-4)Gal(b1-4)GlcNAc(b1-3)Gal(b1-4)Glc
# Outline: as §1
# [14] = molecular target: GlcNAc(a1-4)Gal(b1-4)GlcNAc(b1-3)Gal(b1-4)GlcNAc
# Outline: as §1
# [15] = molecular target: GlcNAc(a1-4)Gal(b1-4)GlcNAc(b1-3)Gal(b1-4)GlcNAc(b1-3)Gal(b1-4)GlcNAc
# Outline: as §1
# [16] = molecular target: GlcNAc(a1-4)Gal(b1-4)GlcNAc(b1-3)Gal(b1-4)[Fuc(a1-3)]GlcNAc(b1-3)Gal(b1-4)[Fuc(a1-3)]GlcNAc
# Outline: as §1
# [17] = molecular target: GlcNAc(a1-6)Gal(b1-4)GlcNAc
# Outline: as §1
# [18] = molecular target: GlcNAc(b1-2)Gal(b1-3)GalNAc
# Outline: as §1
# [19] = molecular target: GlcNAc(b1-2)Man(a1-3)[GlcNAc(b1-2)Man(a1-6)]Man(b1-4)GlcNAc(b1-4)GlcNAc
# Outline: as §1
# [20] = molecular target: GlcNAc(b1-2)Man(a1-3)[GlcNAc(b1-2)Man(a1-6)]Man(b1-4)GlcNAc(b1-4)[Fuc(a1-6)]GlcNAc
# Outline: as §1
# [21] = molecular target: GlcNAc(b1-2)Man(a1-3)[GlcNAc(b1-4)][GlcNAc(b1-2)Man(a1-6)]Man(b1-4)GlcNAc(b1-4)GlcNAc
# Outline: as §1
# [22] = molecular target: GlcNAc(b1-2)Man(a1-3)[GlcNAc(b1-4)][GlcNAc(b1-2)Man(a1-6)]Man(b1-4)GlcNAc(b1-4)[Fuc(a1-6)]GlcNAc
# Outline: as §1
# [23] = molecular target: GlcNAc(b1-2)[GlcNAc(b1-4)]Man(a1-3)[GlcNAc(b1-2)Man(a1-6)]Man(b1-4)GlcNAc(b1-4)GlcNAc
# Outline: as §1
# [24] = molecular target: GlcNAc(b1-2)[GlcNAc(b1-4)]Man(a1-3)[GlcNAc(b1-4)][GlcNAc(b1-2)Man(a1-6)]Man(b1-4)GlcNAc(b1-4)GlcNAc
# Outline: as §1
# [25] = molecular target: GlcNAc(b1-2)[GlcNAc(b1-4)]Man(a1-3)[GlcNAc(b1-4)][GlcNAc(b1-2)[GlcNAc(b1-6)]Man(a1-6)]Man(b1-4)GlcNAc(b1-4)GlcNAc
# Outline: as §1
# [26] = molecular target: GlcNAc(b1-2)[GlcNAc(b1-4)]Man(a1-3)[GlcNAc(b1-4)][GlcNAc(b1-2)[GlcNAc(b1-6)]Man(a1-6)]Man(b1-4)GlcNAc(b1-4)[Fuc(a1-6)]GlcNAc
# Outline: as §1
# [27] = molecular target: GlcNAc(b1-2)[GlcNAc(b1-6)]Man(a1-6)[GlcNAc(b1-2)Man(a1-3)]Man(b1-4)GlcNAc(b1-4)GlcNAc
# Outline: as §1
# [28] = molecular target: GlcNAc(b1-2)[GlcNAc(b1-6)]Man(a1-6)[GlcNAc(b1-2)Man(a1-3)]Man(b1-4)GlcNAc(b1-4)[Fuc(a1-6)]GlcNAc
# Outline: as §1
# [29] = molecular target: GlcNAc(b1-2)[GlcNAc(b1-6)]Man(a1-6)[GlcNAc(b1-4)][GlcNAc(b1-2)Man(a1-3)]Man(b1-4)GlcNAc(b1-4)GlcNAc
# Outline: as §1
# GlcNAc(b1-3)Fuc = molecular target: GlcNAc(b1-3)Fuc
# Outline: as §1
# GlcNAc(b1-3)Gal = molecular target: GlcNAc(b1-3)Gal
# Outline: as §1
binder,measurement,setting,value
B1,glycan array binding signal (z-score),GalNAc(b1-4)GlcNAc,1.31
same,glycan array binding signal (z-score),[1],1.47
same,glycan array binding signal (z-score),[2],-0.238
same,glycan array binding signal (z-score),[3],2.96
same,glycan array binding signal (z-score),GalNAc(b1-4)GlcNAc6S,1.38
same,glycan array binding signal (z-score),GalNAc(b1-6)GalNAc,-0.323
same,glycan array binding signal (z-score),GalNAc3S(b1-4)GlcNAc,-0.349
same,glycan array binding signal (z-score),GalNAc3S(b1-4)GlcNAc3S,-0.324
same,glycan array binding signal (z-score),[4],-0.353
same,glycan array binding signal (z-score),GalNAc4S6S(b1-4)GlcNAc,-0.382
same,glycan array binding signal (z-score),GalNAc6S(b1-4)GlcNAc,-0.377
same,glycan array binding signal (z-score),Glc(a1-4)Glc,-0.302
same,glycan array binding signal (z-score),[5],-0.314
same,glycan array binding signal (z-score),Glc(a1-6)Glc(a1-6)Glc,-0.33
same,glycan array binding signal (z-score),[6],-0.343
same,glycan array binding signal (z-score),Glc(b1-4)Glc,-0.247
same,glycan array binding signal (z-score),Glc(b1-6)Glc,-0.375
same,glycan array binding signal (z-score),GlcA(b1-3)Gal,-0.315
same,glycan array binding signal (z-score),GlcA(b1-3)GlcNAc,-0.199
same,glycan array binding signal (z-score),GlcA(b1-6)Gal,-0.346
same,glycan array binding signal (z-score),[7],-0.375
same,glycan array binding signal (z-score),[8],-0.414
same,glycan array binding signal (z-score),[9],-0.361
same,glycan array binding signal (z-score),[10],-0.453
same,glycan array binding signal (z-score),[11],-0.418
same,glycan array binding signal (z-score),[12],-0.358
same,glycan array binding signal (z-score),[13],-0.458
same,glycan array binding signal (z-score),[14],-0.308
same,glycan array binding signal (z-score),[15],-0.359
same,glycan array binding signal (z-score),[16],-0.386
same,glycan array binding signal (z-score),[17],-0.356
same,glycan array binding signal (z-score),[18],-0.385
same,glycan array binding signal (z-score),[19],-0.338
same,glycan array binding signal (z-score),[20],-0.365
same,glycan array binding signal (z-score),[21],-0.362
same,glycan array binding signal (z-score),[22],-0.282
same,glycan array binding signal (z-score),[23],-0.367
same,glycan array binding signal (z-score),[24],-0.324
same,glycan array binding signal (z-score),[25],-0.354
same,glycan array binding signal (z-score),[26],-0.359
same,glycan array binding signal (z-score),[27],-0.389
same,glycan array binding signal (z-score),[28],-0.303
same,glycan array binding signal (z-score),[29],-0.372
same,glycan array binding signal (z-score),GlcNAc(b1-3)Fuc,-0.323
same,glycan array binding signal (z-score),GlcNAc(b1-3)Gal,-0.363
